According to the supplement of paper PMC8728848:
Some of the results follow.

Assays:
Assay in all cases: glycan array binding signal (z-score within array); higher = stronger binding
Settings in all cases: glycan notation: IUPAC condensed, linker removed
[1] = biological target: Gal(a1-3)Gal(b1-3)GlcNAc(b1-6)GalNAc
Outline: (§1)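 Arrays were curated from the Consortium for Functional Glycomics database, 3228 in total, and kept only where the protein sequence was available. Binding is expressed as a within-array Z-score. This score was averaged across arrays of the same protein sequence at different concentrations or buffers and across linkers, and negative values can be read as non-binding.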

[2] = biological target: Gal(a1-3)Gal(b1-3)[Fuc(a1-4)]GlcNAc(b1-2)Man(a1-3)[Gal(a1-3)Gal(b1-3)[Fuc(a1-4)]GlcNAc(b1-2)Man(a1-6)]Man(b1-4)GlcNAc(b1-4)GlcNAc
Outline: as §1

Gal(a1-3)Gal(b1-4)Glc = biological target: Gal(a1-3)Gal(b1-4)Glc
Outline: as §1

Gal(a1-3)Gal(b1-4)GlcNAc = biological target: Gal(a1-3)Gal(b1-4)GlcNAc
Outline: as §1

[3] = biological target: Gal(a1-3)Gal(b1-4)GlcNAc(b1-2)Man
Outline: as §1

[4] = biological target: Gal(a1-3)Gal(b1-4)GlcNAc(b1-2)Man(a1-3)[Gal(a1-3)Gal(b1-4)GlcNAc(b1-2)Man(a1-6)]Man(b1-4)GlcNAc(b1-4)GlcNAc
Outline: as §1

[5] = biological target: Gal(a1-3)Gal(b1-4)GlcNAc(b1-3)GalNAc
Outline: as §1

[6] = biological target: Gal(a1-3)Gal(b1-4)GlcNAc(b1-6)GalNAc
Outline: as §1

[7] = biological target: Gal(a1-3)Gal(b1-4)[Fuc(a1-3)]GlcNAc
Outline: as §1

[8] = biological target: Gal(a1-3)Gal(b1-4)[Fuc(a1-3)]GlcNAc(b1-2)Man(a1-3)[Gal(a1-3)Gal(b1-4)[Fuc(a1-3)]GlcNAc(b1-2)Man(a1-6)]Man(b1-4)GlcNAc(b1-4)GlcNAc
Outline: as §1

Gal(a1-3)GalNAc = biological target: Gal(a1-3)GalNAc
Outline: as §1

[9] = biological target: Gal(a1-3)[Gal(a1-4)]Gal(b1-4)GlcNAc
Outline: as §1

[10] = biological target: Gal(a1-4)Gal(b1-3)GlcNAc(b1-2)Man(a1-3)[Gal(a1-4)Gal(b1-3)GlcNAc(b1-2)Man(a1-6)]Man(b1-4)GlcNAc(b1-4)GlcNAc
Outline: as §1

Gal(a1-4)Gal(b1-4)Glc = biological target: Gal(a1-4)Gal(b1-4)Glc
Outline: as §1

Gal(a1-4)Gal(b1-4)GlcNAc = biological target: Gal(a1-4)Gal(b1-4)GlcNAc
Outline: as §1

[11] = biological target: Gal(a1-4)Gal(b1-4)GlcNAc(b1-2)Man(a1-3)[Gal(a1-4)Gal(b1-4)GlcNAc(b1-2)Man(a1-6)]Man(b1-4)GlcNAc(b1-4)GlcNAc
Outline: as §1

[12] = biological target: Gal(a1-4)Gal(b1-4)GlcNAc(b1-3)Gal(b1-4)Glc
Outline: as §1

Gal(a1-4)GlcNAc = biological target: Gal(a1-4)GlcNAc
Outline: as §1

Gal(a1-6)Glc = biological target: Gal(a1-6)Glc
Outline: as §1

Gal(b1-2)Gal = biological target: Gal(b1-2)Gal
Outline: as §1

Gal(b1-3)Gal = biological target: Gal(b1-3)Gal
Outline: as §1

Gal(b1-3)Gal(b1-4)GlcNAc = biological target: Gal(b1-3)Gal(b1-4)GlcNAc
Outline: as §1

[13] = biological target: Gal(b1-3)Gal(b1-4)GlcNAc(b1-2)Man(a1-3)[Gal(b1-3)Gal(b1-4)GlcNAc(b1-2)Man(a1-6)]Man(b1-4)GlcNAc(b1-4)GlcNAc
Outline: as §1

Gal(b1-3)GalNAc = biological target: Gal(b1-3)GalNAc
Outline: as §1

[14] = biological target: Gal(b1-3)GalNAc(a1-3)[Fuc(a1-2)]Gal(b1-4)Glc
Outline: as §1

[15] = biological target: Gal(b1-3)GalNAc(a1-3)[Fuc(a1-2)]Gal(b1-4)GlcNAc
Outline: as §1

Gal(b1-3)GalNAc(b1-3)Gal = biological target: Gal(b1-3)GalNAc(b1-3)Gal
Outline: as §1

[16] = biological target: Gal(b1-3)GalNAc(b1-3)Gal(a1-4)Gal(b1-4)Glc
Outline: as §1

[17] = biological target: Gal(b1-3)GalNAc(b1-4)Gal(b1-4)Glc
Outline: as §1

[18] = biological target: Gal(b1-3)GalNAc(b1-4)[Neu5Ac(a2-3)]Gal(b1-4)Glc
Outline: as §1

Gal(b1-3)GlcNAc = biological target: Gal(b1-3)GlcNAc
Outline: as §1

[19] = biological target: Gal(b1-3)GlcNAc(a1-3)Gal(b1-4)GlcNAc
Outline: as §1

[20] = biological target: Gal(b1-3)GlcNAc(a1-6)Gal(b1-4)GlcNAc
Outline: as §1

Gal(b1-3)GlcNAc(b1-2)Man = biological target: Gal(b1-3)GlcNAc(b1-2)Man
Outline: as §1

[21] = biological target: Gal(b1-3)GlcNAc(b1-2)Man(a1-3)[Gal(b1-3)GlcNAc(b1-2)Man(a1-6)]Man(b1-4)GlcNAc(b1-4)GlcNAc
Outline: as §1

[22] = biological target: Gal(b1-3)GlcNAc(b1-2)Man(a1-3)[Gal(b1-3)GlcNAc(b1-2)Man(a1-6)]Man(b1-4)GlcNAc(b1-4)[Fuc(a1-6)]GlcNAc
Outline: as §1

[23] = biological target: Gal(b1-3)GlcNAc(b1-2)Man(a1-3)[GlcNAc(b1-4)][Gal(b1-3)GlcNAc(b1-2)Man(a1-6)]Man(b1-4)GlcNAc(b1-4)GlcNAc
Outline: as §1

[24] = biological target: Gal(b1-3)GlcNAc(b1-2)[Gal(b1-3)GlcNAc(b1-6)]Man(a1-6)[Gal(b1-3)GlcNAc(b1-2)Man(a1-3)]Man(b1-4)GlcNAc(b1-4)GlcNAc
Outline: as §1

B1: Siglec-7-SA-PE-180 (Homo sapiens), Q9Y286 (protein)
chain: MLLLLLLPLLWGRERVEGQKSNRKDYSLTMQSSVTVQEGMCVHVRCSFSYPVDSQTDSDPVHGYWFRAGNDISWKAPVATNNPAWAVQEETRDRFHLLGDPQTKNCTLSIRDARMSDAGRYFFRMEKGNIKWNYKYDQLSVNVTALTHRPNILIPGTLESGCFQNLTCSVPWACEQGTPPMISWMGTSVSPLHPSTTRSSVLTLIPQPQHHGTSLTCQVTLPGAGVTTNRTIQLNVSYPPQNLTVTVFQGEGTASTALGNSSSLSVLEGQSLRLVCAVDSNPPARLSWTWRSLTLYPSQPSNPLVLELQVHLGDEGEFTCRAQNSLGSQHVSLNLSLQQEYTGKMRPVSGVLLGAVGGAGATALVFLSFCVIFIVVRSCRKKSARPAADVGDIGMKDANTIRGSASQGNLTESWADDNPRHHGLAAHSSGEEREIQYAPLSFHKGEPQDLSGQEATNNEYSEIKIPK
B1 was tested, and the “glycan array binding signal (z-score)” value [1] was -0.241, the “glycan array binding signal (z-score)” value [2] was -0.1 and the “glycan array binding signal (z-score)” value (Gal(a1-3)Gal(b1-4)Glc) was -0.334. The “glycan array binding signal (z-score)” value (Gal(a1-3)Gal(b1-4)GlcNAc) was -0.394, the “glycan array binding signal (z-score)” value [3] was -0.286 and the “glycan array binding signal (z-score)” value [4] was -0.053. For the same binder, the “glycan array binding signal (z-score)” value [5] was -0.37, the “glycan array binding signal (z-score)” value [6] was -0.106 and the “glycan array binding signal (z-score)” value [7] was -0.216. For the same binder, the “glycan array binding signal (z-score)” value [8] was 0.009, the “glycan array binding signal (z-score)” value (Gal(a1-3)GalNAc) was -0.153 and the “glycan array binding signal (z-score)” value [9] was 0.374. For the same binder, the “glycan array binding signal (z-score)” value [10] was -0.291, the “glycan array binding signal (z-score)” value (Gal(a1-4)Gal(b1-4)Glc) was -0.367 and the “glycan array binding signal (z-score)” value (Gal(a1-4)Gal(b1-4)GlcNAc) was -0.174. The “glycan array binding signal (z-score)” value [11] was -0.102, the “glycan array binding signal (z-score)” value [12] was -0.225 and the “glycan array binding signal (z-score)” value (Gal(a1-4)GlcNAc) was -0.247. For the same binder, the “glycan array binding signal (z-score)” value (Gal(a1-6)Glc) was -0.141, the “glycan array binding signal (z-score)” value (Gal(b1-2)Gal) was -0.016 and the “glycan array binding signal (z-score)” value (Gal(b1-3)Gal) was -0.057. For the same binder, the “glycan array binding signal (z-score)” value (Gal(b1-3)Gal(b1-4)GlcNAc) was -0.288, the “glycan array binding signal (z-score)” value [13] was -0.363 and the “glycan array binding signal (z-score)” value (Gal(b1-3)GalNAc) was -0.353. The “glycan array binding signal (z-score)” value [14] was -0.1, the “glycan array binding signal (z-score)” value [15] was -0.394 and the “glycan array binding signal (z-score)” value (Gal(b1-3)GalNAc(b1-3)Gal) was -0.504. For the same binder, the “glycan array binding signal (z-score)” value [16] was -0.171, the “glycan array binding signal (z-score)” value [17] was 0.158 and the “glycan array binding signal (z-score)” value [18] was -0.153. The “glycan array binding signal (z-score)” value (Gal(b1-3)GlcNAc) was -0.03, the “glycan array binding signal (z-score)” value [19] was -0.314 and the “glycan array binding signal (z-score)” value [20] was -0.387. For the same binder, the “glycan array binding signal (z-score)” value (Gal(b1-3)GlcNAc(b1-2)Man) was 0.044, the “glycan array binding signal (z-score)” value [21] was -0.318 and the “glycan array binding signal (z-score)” value [22] was -0.352. For the same binder, the “glycan array binding signal (z-score)” value [23] was -0.03 and the “glycan array binding signal (z-score)” value [24] was -0.181.
